Assay results: the supplement of paper PMC8728848
The list shows a part of the results.

How the values were obtained:
Experiment in all cases: glycan array binding signal (z-score within array); higher = stronger binding
Conditions in all cases: glycan notation: IUPAC condensed, linker removed
Gal3S(b1-4)Glc = molecular target: Gal3S(b1-4)Glc
Summary of the method: (§1)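 The binding signal is a Z-score computed within each array and averaged over linkers. Arrays of the same protein sequence at different concentrations or buffers were also averaged together. Data originate from 3228 arrays in the Consortium for Functional Glycomics database, kept only where the protein sequence was available.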

Gal3S(b1-4)Glc6S = molecular target: Gal3S(b1-4)Glc6S
Summary of the method: as §1

Gal3S(b1-4)GlcNAc = molecular target: Gal3S(b1-4)GlcNAc
Summary of the method: as §1

[1] = molecular target: Gal3S(b1-4)[Fuc(a1-3)]Glc6S
Summary of the method: as §1

[2] = molecular target: Gal3S(b1-4)[Fuc(a1-3)]GlcNAc
Summary of the method: as §1

[3] = molecular target: Gal3S(b1-4)[Fuc(a1-3)]GlcNAc6S
Summary of the method: as §1

Gal3S4S(b1-4)GlcNAc = molecular target: Gal3S4S(b1-4)GlcNAc
Summary of the method: as §1

Gal3S6S(b1-4)GlcNAc = molecular target: Gal3S6S(b1-4)GlcNAc
Summary of the method: as §1

Gal3S6S(b1-4)GlcNAc6S = molecular target: Gal3S6S(b1-4)GlcNAc6S
Summary of the method: as §1

Gal4S(b1-4)GlcNAc = molecular target: Gal4S(b1-4)GlcNAc
Summary of the method: as §1

Gal4S6S(b1-4)GlcNAc = molecular target: Gal4S6S(b1-4)GlcNAc
Summary of the method: as §1

Gal6P(b1-4)GlcNAc = molecular target: Gal6P(b1-4)GlcNAc
Summary of the method: as §1

Gal6S(b1-3)GlcNAc = molecular target: Gal6S(b1-3)GlcNAc
Summary of the method: as §1

Gal6S(b1-3)GlcNAc6S = molecular target: Gal6S(b1-3)GlcNAc6S
Summary of the method: as §1

Gal6S(b1-4)Glc = molecular target: Gal6S(b1-4)Glc
Summary of the method: as §1

Gal6S(b1-4)Glc6S = molecular target: Gal6S(b1-4)Glc6S
Summary of the method: as §1

Gal6S(b1-4)GlcNAc = molecular target: Gal6S(b1-4)GlcNAc
Summary of the method: as §1

Gal6S(b1-4)GlcNAc6S = molecular target: Gal6S(b1-4)GlcNAc6S
Summary of the method: as §1

GalNAc(a1-3)Gal = molecular target: GalNAc(a1-3)Gal
Summary of the method: as §1

GalNAc(a1-3)GalNAc = molecular target: GalNAc(a1-3)GalNAc
Summary of the method: as §1

[4] = molecular target: GalNAc(a1-3)GalNAc(a1-3)Gal(a1-4)Gal(b1-4)GlcNAc
Summary of the method: as §1

[5] = molecular target: GalNAc(a1-3)GalNAc(b1-3)Gal(a1-4)Gal(b1-4)Glc
Summary of the method: as §1

GalNAc(b1-3)Gal = molecular target: GalNAc(b1-3)Gal
Summary of the method: as §1

[6] = molecular target: GalNAc(b1-3)Gal(a1-4)Gal(b1-4)GlcNAc
Summary of the method: as §1

[7] = molecular target: GalNAc(b1-3)Gal(a1-4)Gal(b1-4)GlcNAc(b1-3)Gal(b1-4)Glc
Summary of the method: as §1

[8] = molecular target: GalNAc(b1-3)Gal(a1-6)Gal(b1-4)Glc
Summary of the method: as §1

GalNAc(b1-3)GalNAc = molecular target: GalNAc(b1-3)GalNAc
Summary of the method: as §1

GalNAc(b1-3)GlcNAc = molecular target: GalNAc(b1-3)GlcNAc
Summary of the method: as §1

GalNAc(b1-4)Gal(b1-4)Glc = molecular target: GalNAc(b1-4)Gal(b1-4)Glc
Summary of the method: as §1

GalNAc(b1-4)GlcNAc = molecular target: GalNAc(b1-4)GlcNAc
Summary of the method: as §1

[9] = molecular target: GalNAc(b1-4)GlcNAc(b1-2)Man
Summary of the method: as §1

[10] = molecular target: GalNAc(b1-4)GlcNAc(b1-2)Man(a1-3)[GalNAc(b1-4)GlcNAc(b1-2)Man(a1-6)]Man(b1-4)GlcNAc(b1-4)GlcNAc
Summary of the method: as §1

[11] = molecular target: GalNAc(b1-4)GlcNAc(b1-3)GalNAc(b1-4)GlcNAc
Summary of the method: as §1

GalNAc(b1-4)GlcNAc6S = molecular target: GalNAc(b1-4)GlcNAc6S
Summary of the method: as §1

GalNAc(b1-6)GalNAc = molecular target: GalNAc(b1-6)GalNAc
Summary of the method: as §1

GalNAc3S(b1-4)GlcNAc = molecular target: GalNAc3S(b1-4)GlcNAc
Summary of the method: as §1

GalNAc3S(b1-4)GlcNAc3S = molecular target: GalNAc3S(b1-4)GlcNAc3S
Summary of the method: as §1

[12] = molecular target: GalNAc3S(b1-4)[Fuc(a1-3)]GlcNAc
Summary of the method: as §1

GalNAc4S6S(b1-4)GlcNAc = molecular target: GalNAc4S6S(b1-4)GlcNAc
Summary of the method: as §1

GalNAc6S(b1-4)GlcNAc = molecular target: GalNAc6S(b1-4)GlcNAc
Summary of the method: as §1

Glc(a1-4)Glc = molecular target: Glc(a1-4)Glc
Summary of the method: as §1

[13] = molecular target: Glc(a1-4)Glc(a1-4)Glc(a1-4)Glc
Summary of the method: as §1

Glc(a1-6)Glc(a1-6)Glc = molecular target: Glc(a1-6)Glc(a1-6)Glc
Summary of the method: as §1

[14] = molecular target: Glc(a1-6)Glc(a1-6)Glc(a1-6)Glc
Summary of the method: as §1

Glc(b1-4)Glc = molecular target: Glc(b1-4)Glc
Summary of the method: as §1

B1: CLECb-Precomplexed (Mus musculus), P43025 (protein)
chain: MAKNGLVLCILVVSLLLDQTDGYPSRMKARKHSKRRVKAKDDDLKSQVEKLWREVNALKEMQALQTVCLRGTKVHKKCYLASEGLKHYHEANEDCISKGGTLVVPRNSDEINALRDYGKRSLPGVNDFWLGINDMVTEGKFLDVHGFAVSFLNWDRAQPSGGKRENCVLFSQSAQGKWSDEACRSSKRYICEFIIPTRTRPLEQKLISEEDLAANDILDYKDDDDKV
For B1, the “glycan array binding signal (z-score)” value (Gal3S(b1-4)Glc) was 0.146, the “glycan array binding signal (z-score)” value (Gal3S(b1-4)Glc6S) was -0.045 and the “glycan array binding signal (z-score)” value (Gal3S(b1-4)GlcNAc) was -0.36. The “glycan array binding signal (z-score)” value [1] was 3.47, the “glycan array binding signal (z-score)” value [2] was -0.397 and the “glycan array binding signal (z-score)” value [3] was 0.004. For the same binder, the “glycan array binding signal (z-score)” value (Gal3S4S(b1-4)GlcNAc) was -0.208, the “glycan array binding signal (z-score)” value (Gal3S6S(b1-4)GlcNAc) was -0.251 and the “glycan array binding signal (z-score)” value (Gal3S6S(b1-4)GlcNAc6S) was -0.426. For the same binder, the “glycan array binding signal (z-score)” value (Gal4S(b1-4)GlcNAc) was -0.4, the “glycan array binding signal (z-score)” value (Gal4S6S(b1-4)GlcNAc) was -0.052 and the “glycan array binding signal (z-score)” value (Gal6P(b1-4)GlcNAc) was -0.205. The “glycan array binding signal (z-score)” value (Gal6S(b1-3)GlcNAc) was -0.105, the “glycan array binding signal (z-score)” value (Gal6S(b1-3)GlcNAc6S) was 0.87 and the “glycan array binding signal (z-score)” value (Gal6S(b1-4)Glc) was 0.134. For the same binder, the “glycan array binding signal (z-score)” value (Gal6S(b1-4)Glc6S) was 0.254, the “glycan array binding signal (z-score)” value (Gal6S(b1-4)GlcNAc) was -0.273 and the “glycan array binding signal (z-score)” value (Gal6S(b1-4)GlcNAc6S) was 0.049. For the same binder, the “glycan array binding signal (z-score)” value (GalNAc(a1-3)Gal) was 0.12, the “glycan array binding signal (z-score)” value (GalNAc(a1-3)GalNAc) was -0.094 and the “glycan array binding signal (z-score)” value [4] was -0.116. For the same binder, the “glycan array binding signal (z-score)” value [5] was -0.054, the “glycan array binding signal (z-score)” value (GalNAc(b1-3)Gal) was 0.144 and the “glycan array binding signal (z-score)” value [6] was -0.291. The “glycan array binding signal (z-score)” value [7] was -0.387, the “glycan array binding signal (z-score)” value [8] was 0.033 and the “glycan array binding signal (z-score)” value (GalNAc(b1-3)GalNAc) was -0.398. For the same binder, the “glycan array binding signal (z-score)” value (GalNAc(b1-3)GlcNAc) was 0.861, the “glycan array binding signal (z-score)” value (GalNAc(b1-4)Gal(b1-4)Glc) was -0.156 and the “glycan array binding signal (z-score)” value (GalNAc(b1-4)GlcNAc) was -0.207. For the same binder, the “glycan array binding signal (z-score)” value [9] was -0.043, the “glycan array binding signal (z-score)” value [10] was 0.242 and the “glycan array binding signal (z-score)” value [11] was -0.127. The “glycan array binding signal (z-score)” value (GalNAc(b1-4)GlcNAc6S) was -0.219, the “glycan array binding signal (z-score)” value (GalNAc(b1-6)GalNAc) was -0.195 and the “glycan array binding signal (z-score)” value (GalNAc3S(b1-4)GlcNAc) was -0.033. The “glycan array binding signal (z-score)” value (GalNAc3S(b1-4)GlcNAc3S) was -0.243, the “glycan array binding signal (z-score)” value [12] was -0.433 and the “glycan array binding signal (z-score)” value (GalNAc4S6S(b1-4)GlcNAc) was -0.507. For the same binder, the “glycan array binding signal (z-score)” value (GalNAc6S(b1-4)GlcNAc) was -0.369, the “glycan array binding signal (z-score)” value (Glc(a1-4)Glc) was -0.153 and the “glycan array binding signal (z-score)” value [13] was -0.285. For the same binder, the “glycan array binding signal (z-score)” value (Glc(a1-6)Glc(a1-6)Glc) was -0.387, the “glycan array binding signal (z-score)” value [14] was -0.182 and the “glycan array binding signal (z-score)” value (Glc(b1-4)Glc) was 1.28.
